Hit rate of the full screen: of about 310,000 compounds, about 2,200 (0.71%) showed an effect of 50% or more. The effect is printed as a negative number. This is one part of the list.

Chain of human ether-à-go-go-related gene (hERG) potassium channel (Q12809 whole entry, looked up): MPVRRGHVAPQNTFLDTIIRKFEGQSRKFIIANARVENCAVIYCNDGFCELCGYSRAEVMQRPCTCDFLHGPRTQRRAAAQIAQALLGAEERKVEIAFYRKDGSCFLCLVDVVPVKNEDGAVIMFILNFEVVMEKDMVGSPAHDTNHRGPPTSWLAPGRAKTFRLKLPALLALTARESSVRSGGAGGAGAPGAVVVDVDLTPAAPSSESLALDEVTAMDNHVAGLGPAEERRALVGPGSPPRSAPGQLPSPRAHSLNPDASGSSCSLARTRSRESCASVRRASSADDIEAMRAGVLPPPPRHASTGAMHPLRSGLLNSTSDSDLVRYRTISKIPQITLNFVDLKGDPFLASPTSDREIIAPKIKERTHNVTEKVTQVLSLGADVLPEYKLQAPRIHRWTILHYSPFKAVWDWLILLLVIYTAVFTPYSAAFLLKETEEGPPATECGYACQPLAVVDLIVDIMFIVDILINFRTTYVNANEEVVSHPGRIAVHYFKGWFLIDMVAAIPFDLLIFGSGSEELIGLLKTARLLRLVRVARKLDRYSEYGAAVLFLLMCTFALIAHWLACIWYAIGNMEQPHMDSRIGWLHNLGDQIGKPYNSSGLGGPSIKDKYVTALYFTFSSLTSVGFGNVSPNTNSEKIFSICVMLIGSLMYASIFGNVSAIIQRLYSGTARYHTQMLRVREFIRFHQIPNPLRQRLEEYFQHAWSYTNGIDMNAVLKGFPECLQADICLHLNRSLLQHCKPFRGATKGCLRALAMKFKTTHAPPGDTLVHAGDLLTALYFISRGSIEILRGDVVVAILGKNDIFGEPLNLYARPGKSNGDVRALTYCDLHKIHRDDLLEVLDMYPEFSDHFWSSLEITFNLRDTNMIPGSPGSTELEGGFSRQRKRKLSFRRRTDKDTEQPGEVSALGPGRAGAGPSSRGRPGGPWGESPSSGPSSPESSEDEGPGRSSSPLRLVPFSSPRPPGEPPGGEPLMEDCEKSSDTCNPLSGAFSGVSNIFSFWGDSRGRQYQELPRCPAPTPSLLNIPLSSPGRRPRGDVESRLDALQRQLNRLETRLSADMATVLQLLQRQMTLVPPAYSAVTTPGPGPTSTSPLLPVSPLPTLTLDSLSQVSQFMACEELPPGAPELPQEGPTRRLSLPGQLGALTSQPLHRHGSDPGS

This experiment has as its target human ether-à-go-go-related gene (hERG) potassium channel (human, UniProt Q12809). The experiment is described as follows: primary screen, population patch clamp on CHO cells stably expressing hERG.
As to `CCc1ccc(NC(=O)Cn2c(=O)c3cccn3c3ccccc32)cc1`, the “hERG current change (%, negative = inhibition) at 1uM” value is on record as 17.2%.
Next, `CCOC(=O)Cn1c(=O)c2c(nc3n2CCCN3CCc2ccccc2)n(C)c1=O`: -6.03%; `O=c1[nH]cnc2c1nnn2Cc1ccccc1`: 11.7%.
Consider `Cc1cccc(-n2cc[nH]c2=S)c1`, for which the “hERG current change (%, negative = inhibition) at 1uM” value worked out at 10.7%.
`N#Cc1ccc(Cn2c(=O)c(C#N)c3n(c2=O)CCC3)cc1`: the “hERG current change (%, negative = inhibition) at 1uM” value is listed as -3.72%.
As for `Cc1ccccc1OCC(=O)Nc1ccc(N2CCN(C(=O)C(C)C)CC2)c(Cl)c1`, the “hERG current change (%, negative = inhibition) at 1uM” value turned out to be 3.02%.
In the case of `Cc1ccc(-n2c(=O)[nH]c3c(oc4ccccc43)c2=O)cc1`, the “hERG current change (%, negative = inhibition) at 1uM” value turned out to be 9.51%.
Turning to `CC(=O)Nc1cccc(OCC(=O)NC(C)C(C)C)c1` (stereo not drawn), the “hERG current change (%, negative = inhibition) at 1uM” value is recorded as 14.2%.
`NC(=O)c1ccc(-n2nnnc2SCC(=O)Nc2ccc(N3CCOCC3)c(Cl)c2)cc1`: the “hERG current change (%, negative = inhibition) at 1uM” value stood at 7.05%.
With `Cl.NCC(CC(=O)O)c1ccc(Cl)cc1` (stereo not drawn), the “hERG current change (%, negative = inhibition) at 1uM” value was found to be 6.28%.
On to `COc1ccc(C2=NN(C(=O)CSc3ncccn3)C(c3cccc(OC)c3OC)C2)cc1` (stereo not drawn), for which the “hERG current change (%, negative = inhibition) at 1uM” value turned out to be 7.76%.
For `O=C(CCn1c(=S)oc2ccccc21)N1CCCCC1`, the “hERG current change (%, negative = inhibition) at 1uM” value turned out to be 3.72%.
On to `Cc1cc(NC(=O)COC(=O)c2ccccc2S(=O)(=O)N(C)c2ccccc2)no1`, for which the “hERG current change (%, negative = inhibition) at 1uM” value is listed as -0.553%.
Turning to `Cc1ccccc1OCC(=O)NCCN(C)C`, the “hERG current change (%, negative = inhibition) at 1uM” value stood at 7.24%.
Next, `Cc1nnc(SCC(=O)Nc2cccc(S(=O)(=O)NC3=NCCCCC3)c2)n1Cc1ccccc1`: 11.3%.
On to `CCC(C)NC(=O)C(Cc1ccccc1)NS(=O)(=O)c1ccc2c(c1)CCC(=O)N2` (stereo not drawn), for which the “hERG current change (%, negative = inhibition) at 1uM” value amounted to 21.2%.
With `COc1ccc(N2C3=C(C(=O)CC(C)(C)C3)C(c3cnn(C)c3)C3=C2CC(C)(C)CC3=O)cc1`, the “hERG current change (%, negative = inhibition) at 1uM” value is 11%.
Regarding `O=c1onc(-c2cccs2)n1Cc1ccccc1`, the “hERG current change (%, negative = inhibition) at 1uM” value is recorded as 13.4%.
As for `CCCCCCCCCCCCN1[C@@H](CC(=O)OC)c2cc(C(F)(F)F)ccc2S1(=O)=O`, the “hERG current change (%, negative = inhibition) at 1uM” value is -13.1%.
Turning to `COc1cc(NC(=O)c2ccc3snnc3c2)cc(OC)c1`, the “hERG current change (%, negative = inhibition) at 1uM” value turned out to be 15.9%.
Take `CNc1nc(SCC(=O)Nc2ccccc2)nc(N2CCOCC2)n1`: the “hERG current change (%, negative = inhibition) at 1uM” value is given as 6.03%.
`Cc1cc(=O)n(C)c(=O)n1CCCCOc1cccc([N+](=O)[O-])c1`: the “hERG current change (%, negative = inhibition) at 1uM” value is reported as 9.25%.
To `O=C(CSc1nnc2scc(-c3ccccc3)n12)Nc1nsc(-c2ccc(Cl)cc2)n1` belongs 3.71%; to `CC(=O)Nc1ccc(NC(=O)c2cc(-c3ccccc3)nc3ccccc23)cc1`, 15.7%; to `COc1ccc(CCN2CC(C(=O)N(C)Cc3ccc(C)o3)CCC2=O)cc1` (stereo not drawn), 11.4%.
On to `O=C(O)c1ccc(Cn2ccc3ccccc32)o1`, for which the “hERG current change (%, negative = inhibition) at 1uM” value is on record as 15.7%.
Consider `COc1ccc(C(=O)NCC(=O)N/N=C(C)\C=C\c2ccccc2)cc1OC`, for which the “hERG current change (%, negative = inhibition) at 1uM” value amounted to 6.33%.
For `CCN=C1SC(CC(=O)Nc2ccccc2)C(=O)N1CC` (stereo not drawn), the “hERG current change (%, negative = inhibition) at 1uM” value is recorded as -2.06%.
For the molecule `CN(CC(=O)N(CCO)Cc1ccccc1)S(=O)(=O)c1ccc2c(c1)c(=O)n(C)c(=O)n2C`, the “hERG current change (%, negative = inhibition) at 1uM” value turned out to be 7.09%.
With `CC(NCC(O)COCc1cccs1)C1CC2CCC1C2` (stereo not drawn), the “hERG current change (%, negative = inhibition) at 1uM” value came to 11.9%.
To `O=C(CN1CCN(CC(=O)Nc2ccccc2Cl)CC1)NCC1(N2CCCCC2)CCCCC1` belongs 0.456%; to `Cc1ccc(CN(C(=O)c2cc3ccccc3oc2=O)C2CCS(=O)(=O)C2)cc1` (stereo not drawn), 18.7%.
To `CCOC(=O)CC(=O)CSC1=C(C#N)C(c2ccccc2OC)CC(=O)N1` (stereo not drawn) belongs -6.1%; to `Cc1cccc(N2CCN(C(=O)c3cc4cc(F)ccc4[nH]3)CC2)c1C`, 12.9%.
On to `Cc1ccc(-c2c(C(=O)N/N=C/c3ccsc3)nnn2-c2nonc2N)cc1`, for which the “hERG current change (%, negative = inhibition) at 1uM” value is reported as 13.1%.
To `CCc1ccc(OCC(=O)NCc2ccco2)c(Br)c1` belongs 12.6%; to `CC(Sc1ccccc1)C(=O)N1CCN(S(=O)(=O)c2cccc(Br)c2)CC1` (stereo not drawn), 7.59%; to `COc1ccc(CN2CCNC(=O)C2CC(=O)NC2CCCC2)cc1OC` (stereo not drawn), 9.83%.
With `CSc1ccc(CN2CCN(C(=O)Cc3ccccc3)CC2)cc1`, the “hERG current change (%, negative = inhibition) at 1uM” value was 9.67%.
Turning to `CCOc1cc(N2CCOCC2)c(OCC)cc1NC1=NCCCCC1.Cl`, the “hERG current change (%, negative = inhibition) at 1uM” value was determined as 9.49%.
To `CCCCCCCc1nc2sc3c(c2c(=O)n1N)CC(C)(C)OC3` belongs 8.85%; to `COC(=O)Cn1c(=NC(=O)c2ccc(Cl)s2)sc2cc(F)ccc21`, 7.96%; to `CC(=O)c1ccc(NC(=O)COC(=O)c2ccccc2Sc2ccccc2C#N)cc1`, -4.8%.
Regarding `O=C1C(Cc2ccccc2O)NC(=S)N1c1ccccc1` (stereo not drawn), the “hERG current change (%, negative = inhibition) at 1uM” value is on record as 16.9%.
In the case of `COC(=O)c1c(NC(=O)c2ccccc2C(=O)O)sc2c1CCC2`, the “hERG current change (%, negative = inhibition) at 1uM” value is on record as 9.21%.
Next, `Cc1ccc(-c2nc3ncccc3o2)cc1NC(=O)COc1ccccc1`: 2.62%; `O=S(=O)(c1ccccc1)N1CCN(Cc2ccccc2C(F)(F)F)CC1`: 9.89%.
Turning to `Cc1ccc(C)c(S(=O)(=O)N2CCN(C(=O)c3cc(S(=O)(=O)NCc4ccccc4)ccc3C)CC2)c1`, the “hERG current change (%, negative = inhibition) at 1uM” value was 8.77%.
`Cc1nc(C(F)(F)F)ccc1C(=O)Nc1ccccc1F`: the “hERG current change (%, negative = inhibition) at 1uM” value is on record as 8.81%.
Take `Cc1cccc(NS(=O)(=O)c2cccc(C(=O)NCCCN3CCOCC3)c2)c1`: the “hERG current change (%, negative = inhibition) at 1uM” value was determined as 6.74%.
With `Cc1ccc(C(C)C)c(OCC(=O)NNC(=O)C(C(C)C)N2C(=O)c3ccccc3C2=O)c1` (stereo not drawn), the “hERG current change (%, negative = inhibition) at 1uM” value turned out to be 10.6%.
For the molecule `CC(Nc1nc(N2CCCCC2)nc2ccccc12)c1ccccc1` (stereo not drawn), the “hERG current change (%, negative = inhibition) at 1uM” value is -14.4%.
Turning to `CCO.CCOC(=O)C1=C(C)Nc2sc(C(=O)c3ccc(C)cc3)c(N)c2C1c1ccc(C(=O)OC)cc1` (stereo not drawn), the “hERG current change (%, negative = inhibition) at 1uM” value is listed as 8.38%.
In the case of `COc1cc2c(cc1OC)C(c1cccc(Br)c1)NC(=O)C2` (stereo not drawn), the “hERG current change (%, negative = inhibition) at 1uM” value is 16.1%.
With `COc1ccc(CNc2nc3c(c(=O)[nH]c(=O)n3C)n2CCCc2ccccc2)cc1`, the “hERG current change (%, negative = inhibition) at 1uM” value amounted to 15.3%.
For `O=C(CSc1ccccc1)N1CCN(S(=O)(=O)c2cccs2)CC1`, the “hERG current change (%, negative = inhibition) at 1uM” value is recorded as 3.29%.
As to `C[C@]12C[C@H](O)[C@@H]3c4ccc(O)cc4CCC3[C@@H]1CCC2=O` (stereo partly drawn), the “hERG current change (%, negative = inhibition) at 1uM” value is 6.91%.
For the molecule `CC[N+](C)(CC)CCC[n+]1c(-c2ccccc2)c2cc(N)ccc2c2ccc(N)cc21.[I-]`, the “hERG current change (%, negative = inhibition) at 1uM” value is given as 7.81%.
As for `CCN(Cc1ccccc1)C(=O)CCS(=O)(=O)c1ccc2c(c1)NC(=O)CO2`, the “hERG current change (%, negative = inhibition) at 1uM” value was found to be 8.49%.
Consider `CC(=O)Cc1nsc(NC(=O)c2ccc(COc3cccc(C)c3)o2)n1`, for which the “hERG current change (%, negative = inhibition) at 1uM” value worked out at 14.8%.
To `CC1(C)C2CC[C@]3(C)C(CC=C4[C@@H]5C[C@](C)(CO)CC[C@]5(C(=O)O)CC[C@]43C)[C@@]2(C)CC[C@@H]1O` (stereo partly drawn) belongs 16.2%.
Regarding `Cc1cccc(S(=O)(=O)Nc2nc3ccccc3nc2Nc2ccc3c(c2)OCO3)c1`, the “hERG current change (%, negative = inhibition) at 1uM” value is recorded as 3.39%.
Next, `Cc1cc(C)nc(Nc2ccccc2Cl)n1.Cl`: 10.5%; `O=C(NCc1ccco1)C1CC(c2ccc(C(F)(F)F)cc2)=NO1` (stereo not drawn): 7.99%.
`CSc1ccccc1NC(=O)COc1ccccc1Cl`: the “hERG current change (%, negative = inhibition) at 1uM” value was 14.6%.
Turning to `O=C(CN(C(=O)c1csnn1)c1ccc(Cl)cc1)NCCc1ccccc1`, the “hERG current change (%, negative = inhibition) at 1uM” value came to 13.4%.
Consider `C=CCSc1nnc(-c2cc(Br)ccc2N)c(=O)[nH]1`, for which the “hERG current change (%, negative = inhibition) at 1uM” value was found to be 15%.
As to `Cc1nnnn1/C(=C\c1ccccc1)C(=O)OCC(=O)N1CC2(C)CC1CC(C)(C)C2` (stereo not drawn), the “hERG current change (%, negative = inhibition) at 1uM” value came out at 10.6%.
As to `Cc1nc(Sc2ccccc2)c(C#N)c(C)c1[N+](=O)[O-]`, the “hERG current change (%, negative = inhibition) at 1uM” value turned out to be 19.3%.
Next, `O=C(Oc1ccccc1-c1nnco1)c1ccccc1`: 10.7%; `O=C1CSC(=S)N1/N=C/c1cc(Br)ccc1O`: 15.6%.
Turning to `O=C(Nc1ccc2oc(=O)ccc2c1)c1ccc(-c2ccccc2[N+](=O)[O-])o1`, the “hERG current change (%, negative = inhibition) at 1uM” value stood at 14.4%.
As for `COc1ccc(OC)c(NC(=O)[C@H]2CC=CC[C@H]2C(=O)O)c1`, the “hERG current change (%, negative = inhibition) at 1uM” value was determined as 1.97%.
Turning to `O=C(COc1coc(CN2CCN(c3ccccc3)CC2)cc1=O)Nc1ccccc1`, the “hERG current change (%, negative = inhibition) at 1uM” value came out at 10.3%.
With `COc1cc(/C=N/Nc2nc(C)cc(=O)[nH]2)cc(OC)c1O`, the “hERG current change (%, negative = inhibition) at 1uM” value is given as 12.6%.
For `CC(C)NC(=O)CN1CCC(c2nc3ccccc3[nH]2)CC1`, the “hERG current change (%, negative = inhibition) at 1uM” value is given as 0.893%.
`CCOC(=O)c1[nH]c(C)c(C(=O)OCCOc2cccc(C)c2)c1C`: the “hERG current change (%, negative = inhibition) at 1uM” value is given as 12.6%.
Take `CSc1c(CC(=O)Nc2ccccc2C(F)(F)F)n(Cc2ccccc2)c2ccccc12`: the “hERG current change (%, negative = inhibition) at 1uM” value was determined as 12.8%.
With `COc1ccc(S(=O)(=O)NCC(=O)N(CC(=O)NC(C)(C)C)Cc2cccs2)cc1`, the “hERG current change (%, negative = inhibition) at 1uM” value is 12.4%.
Next, `CSc1ccc(CN(C)C(=O)C23CC4CC(CC(Cl)(C4)C2)C3)cc1`: 16.7%; `CC(=O)c1ccc(N2CCN(CC3CCCCC3)CC2)cc1`: 1.38%.
For `CC(=O)Nc1ccc(S(=O)(=O)N2CCC(C(=O)NC3CCCC3)CC2)cc1`, the “hERG current change (%, negative = inhibition) at 1uM” value came to 24.6%.
To `Cc1cc(C(=O)Nc2sccc2C#N)c2ccccc2n1` belongs 19.1%; to `O=C(CN1CCCCC1)Nc1cc(Cl)ccc1Cl`, -0.089%; to `Cc1ccc(CNC(=O)C2CCC(=O)N(CCc3ccc(Cl)cc3)C2)s1` (stereo not drawn), -22%.
As to `CCC(C)(C)n1nnnc1C(c1cccs1)N1CCCCC1` (stereo not drawn), the “hERG current change (%, negative = inhibition) at 1uM” value is recorded as -9.19%.
Consider `Cc1ccc2c(CN3CC=C(c4ccccc4)CC3)cc(=O)oc2c1C`, for which the “hERG current change (%, negative = inhibition) at 1uM” value was 12.3%.

Values taken from paper PMC4336329 (PLoS ONE, 2015).
